These are yes or no findings as the source states them, for the method shown. For some assays here: Binding seen in cells or lysates may run through a third protein. Some results given as binding are weak or reduced against the parent protein; the word gives no strength.

Chains of the proteins cited; added tags and fusions are not shown. Lines headed by an entry give the natural chain unless they say otherwise; changes in a name come on top. Residues count along the entry.
UniProt O95619: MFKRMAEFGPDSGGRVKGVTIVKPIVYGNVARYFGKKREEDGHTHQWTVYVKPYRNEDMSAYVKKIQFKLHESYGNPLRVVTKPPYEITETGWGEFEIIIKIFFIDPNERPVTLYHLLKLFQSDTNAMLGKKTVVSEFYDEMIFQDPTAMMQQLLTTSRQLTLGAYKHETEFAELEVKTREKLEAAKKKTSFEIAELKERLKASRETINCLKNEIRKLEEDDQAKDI
UniProt P13984: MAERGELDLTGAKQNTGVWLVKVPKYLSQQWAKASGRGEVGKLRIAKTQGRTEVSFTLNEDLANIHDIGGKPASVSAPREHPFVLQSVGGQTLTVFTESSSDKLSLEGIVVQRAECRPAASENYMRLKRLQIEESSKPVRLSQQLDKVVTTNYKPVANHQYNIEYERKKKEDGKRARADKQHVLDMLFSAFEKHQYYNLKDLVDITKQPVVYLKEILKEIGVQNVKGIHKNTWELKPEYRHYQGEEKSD
GST-RAP30 d1 (RAP74 binding domain, aa1-100): residues 1-100 of P13984
UniProt P20226: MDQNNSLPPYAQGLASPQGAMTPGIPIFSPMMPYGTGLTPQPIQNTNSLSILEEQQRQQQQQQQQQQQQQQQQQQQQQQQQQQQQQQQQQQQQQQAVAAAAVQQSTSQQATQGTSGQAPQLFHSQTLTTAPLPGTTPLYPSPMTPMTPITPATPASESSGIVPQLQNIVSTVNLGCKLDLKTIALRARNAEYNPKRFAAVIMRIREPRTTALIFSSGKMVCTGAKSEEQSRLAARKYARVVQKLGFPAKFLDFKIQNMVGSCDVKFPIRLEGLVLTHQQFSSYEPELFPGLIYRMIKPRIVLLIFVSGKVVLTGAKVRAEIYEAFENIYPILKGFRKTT
UniProt P35269: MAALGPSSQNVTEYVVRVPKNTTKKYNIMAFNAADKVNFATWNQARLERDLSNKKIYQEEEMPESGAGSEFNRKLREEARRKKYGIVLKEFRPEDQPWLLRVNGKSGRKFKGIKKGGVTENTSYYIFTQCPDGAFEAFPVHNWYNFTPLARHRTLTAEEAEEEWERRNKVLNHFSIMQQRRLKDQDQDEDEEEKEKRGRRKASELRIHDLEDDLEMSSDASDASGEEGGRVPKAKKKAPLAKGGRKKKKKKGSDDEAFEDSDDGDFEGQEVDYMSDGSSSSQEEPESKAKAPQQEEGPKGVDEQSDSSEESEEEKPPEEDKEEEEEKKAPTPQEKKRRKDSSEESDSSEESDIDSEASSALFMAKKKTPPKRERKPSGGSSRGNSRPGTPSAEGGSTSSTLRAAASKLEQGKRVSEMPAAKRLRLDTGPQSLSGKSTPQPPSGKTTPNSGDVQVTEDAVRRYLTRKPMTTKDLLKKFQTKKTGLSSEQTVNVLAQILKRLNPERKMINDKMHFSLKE

The target in experiment [1] is HA-GAS41 (human) (UniProt O95619). Nature of the experiment: co-IP; HEK293 co-transfected with HA-GAS41 and FLAG-RAP30; lysate on anti-HA agarose (HA-Tag IP/Co-IP kit); immunoblot with FLAG antibody. (In general: In western blotting, separated proteins are transferred to a membrane and probed.)
A further experiment addresses FLAG-RAP30 (human) (UniProt P13984). Nature of the experiment: co-IP; HEK293 co-transfected with HA-GAS41 and FLAG-RAP30; lysate (150 mM NaCl, 50 mM Tris/HCl pH 8.0, 1% NP40) on FLAG-M2 agarose over night at 4°C; immunoblot.
The target of experiment [2] is GST-RAP30 d1 (RAP74 binding domain, aa1-100) (human) (UniProt P13984). Nature of the experiment: pull-down; GST-RAP30 full length or fragments d1-d3 on glutathione-sepharose 4B as bait, purified His-GAS41 (10-20 ug) as prey, over night at 4°C; immunoblot; both purified.
Experiment [3] deals with HA-GAS41 (human) (UniProt O95619). Nature of the experiment: co-IP; HEK293 transfected with pSG5-HA-GAS41 or pSG5; immunoprecipitation of HA-GAS41; immunoblot for endogenous TBP and RNA polymerase II.
For experiment [4], the target named is GST-GAS41 (glioma amplified sequence 41, GST-tagged, full length) (human) (UniProt O95619). Nature of the experiment: pull-down; GST-GAS41 sepharose incubated with HeLa nuclear extract, washed with PBS containing 0.5 M NaCl, 45 min at 4°C; immunoblot for RAP30; only the target purified.
For experiment [5], the target named is endogenous GAS41 (HeLa nuclear extract) (human (endogenous in HeLa)) (UniProt O95619). Nature of the experiment: co-IP; HeLa nuclear extracts, polyclonal GAS41 antibodies or rabbit IgG isotype control on protein A-sepharose; immunoblot with RAP30 and RAP74 antibodies; all proteins endogenous.
Experiment [6] has as its target GST-GAS41 (glioma amplified sequence 41, GST-tagged, full length) (human) (UniProt O95619). Nature of the experiment: pull-down; GST-GAS41 on glutathione-sepharose 4B, incubated with 250 ug HeLa nuclear extract (Promega) over night at 4°C; immunoblot with RAP30 and RAP74 antibodies; only the target purified.
Experiment [7] has the same target. Nature of the experiment: pull-down; GST-GAS41 sepharose incubated with HeLa nuclear extract, washed with PBS then PBS with increasing NaCl (0.14 M up to 0.4 M), 45 min at 4°C; immunoblot for RAP30; only the target purified.

For FLAG-RAP30 (from UniProt P13984 1-249), the binding entry with HA-GAS41 (human) [1] is listed as “binds”. HA-GAS41 (from UniProt O95619 1-227): the binding result with FLAG-RAP30 (human) was “binds”. In the case of His-GAS41 (from UniProt O95619 1-227), the binding result in experiment [2] was “no binding”. For the substance “TATA binding protein (TBP), endogenous (from UniProt P20226 1-339)”, the binding entry in the experiment with HA-GAS41 (human) [3] is “no binding”. Take “endogenous GAS41 (HEK293) (from UniProt O95619 1-227)”: in the experiment with FLAG-RAP30 (human), the binding result is “binds”. As for “endogenous RAP30 (HeLa nuclear extract) (from UniProt P13984 1-249)”, the binding entry in experiment [4] is recorded as “binds weakly”; in experiment [5], “binds”; in experiment [6], “binds”; in experiment [7] it was “binds”. With “endogenous RAP74 (HeLa nuclear extract) (from UniProt P35269 1-517)”, the binding entry in experiment [5] and in experiment [6] was “binds” in each case.

For the origin of these results see article PMC2908078, “The YEATS family member GAS41 interacts with the general transcription factor TFIIF” (BMC Molecular Biology, 2010).
